According to publication PMC4336329 (PLoS ONE, 2015):
Out of some 310,000 compounds screened, about 2,200 (0.71%) showed an effect of 50% or more. Effects have a minus sign here. This is one part of the list.

The molecules below were run against human ether-à-go-go-related gene (hERG) potassium channel (human, UniProt Q12809) (assay: primary screen, population patch clamp on CHO cells stably expressing hERG).
Chain of human ether-à-go-go-related gene (hERG) potassium channel (Q12809 whole entry, looked up): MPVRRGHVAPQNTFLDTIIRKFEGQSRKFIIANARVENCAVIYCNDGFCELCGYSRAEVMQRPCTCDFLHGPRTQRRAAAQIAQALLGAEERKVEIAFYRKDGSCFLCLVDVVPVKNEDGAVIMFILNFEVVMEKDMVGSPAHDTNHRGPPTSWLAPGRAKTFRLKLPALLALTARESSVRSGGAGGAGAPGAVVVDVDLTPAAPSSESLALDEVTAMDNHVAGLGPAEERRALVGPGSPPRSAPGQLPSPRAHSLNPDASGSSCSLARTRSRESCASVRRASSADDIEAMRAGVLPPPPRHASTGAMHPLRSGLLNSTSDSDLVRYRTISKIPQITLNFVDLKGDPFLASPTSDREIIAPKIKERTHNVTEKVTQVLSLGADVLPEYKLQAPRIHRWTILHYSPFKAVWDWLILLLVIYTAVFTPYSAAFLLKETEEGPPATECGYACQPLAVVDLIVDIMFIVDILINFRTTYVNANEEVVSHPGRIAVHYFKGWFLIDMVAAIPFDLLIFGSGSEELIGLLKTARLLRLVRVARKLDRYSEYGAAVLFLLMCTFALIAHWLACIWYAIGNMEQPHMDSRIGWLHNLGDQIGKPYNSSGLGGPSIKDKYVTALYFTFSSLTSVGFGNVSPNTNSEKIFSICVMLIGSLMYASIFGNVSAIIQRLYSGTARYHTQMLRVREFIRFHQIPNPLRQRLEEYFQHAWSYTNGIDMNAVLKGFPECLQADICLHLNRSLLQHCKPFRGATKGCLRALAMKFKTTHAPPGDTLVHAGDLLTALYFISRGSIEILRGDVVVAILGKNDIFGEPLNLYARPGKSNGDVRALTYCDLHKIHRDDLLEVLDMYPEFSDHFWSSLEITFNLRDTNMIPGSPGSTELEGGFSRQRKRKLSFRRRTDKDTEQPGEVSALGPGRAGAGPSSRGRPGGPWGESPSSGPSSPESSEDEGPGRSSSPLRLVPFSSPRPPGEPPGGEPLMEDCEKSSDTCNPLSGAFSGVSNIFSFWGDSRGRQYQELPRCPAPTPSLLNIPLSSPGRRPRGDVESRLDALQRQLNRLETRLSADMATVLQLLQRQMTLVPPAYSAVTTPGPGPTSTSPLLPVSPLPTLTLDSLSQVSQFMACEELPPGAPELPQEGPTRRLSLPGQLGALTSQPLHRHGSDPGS

Compound	hERG current change (%, negative = inhibition) at 1uM
CCCSc1nnc(Cn2c(=O)sc3ccccc32)n1-c1ccccc1	-2.09%
COCCNS(=O)(=O)c1cc(OC)c(C)cc1C	6.66%
CC1(C)CC(=O)C=C(c2cccc(O)c2)C1=O	8.63%
COC(=O)C(C(=O)N1CCN(C)CC1)C1CCCCCC1 (stereo not shown)	7.72%
O=C(c1c[nH]c2ccccc12)C(O)C(c1ccccc1)N1CCOCC1 (stereo not shown)	12.7%
CC(NC(=O)C1CCN(C(=O)c2ccc(F)cc2)CC1)c1ccc(-n2ccnc2)cc1 (stereo not shown)	-12.2%
NC(=O)COc1ccccc1	10.6%
CN(Cc1ccccc1)C(=C(Cl)Cl)/C(=C1/NCCN1Cc1ccc(Cl)nc1)[N+](=O)[O-]	4.06%
O=C(CNc1cccc2ccccc12)N/N=C/c1ccc([N+](=O)[O-])cc1	11.6%
O=c1[nH]c2ccc(S(=O)(=O)N3CCCCC3)cc2s1	-1.23%
COC(=O)c1ccc(OCCOCCOc2cccc3ccc(C)nc23)cc1	6.16%
COc1cccc(-c2nc(CS(=O)(=O)CC(=O)Nc3ccccc3Cl)c(C)o2)c1	9.58%
CC(Cc1ccccc1)NC(=O)/C=C/C(=O)O (stereo not shown)	2.24%
Cc1cccc(C(C)C)c1NC(=O)C1CCN(S(=O)(=O)c2ccccc2)CC1	11%
N#Cc1ccc(OCC(=O)N2CCN(S(=O)(=O)c3cccs3)CC2)cc1	-54.7%
Cc1cc(C(=O)NCC(=O)OC(C(=O)Nc2cc(C(F)(F)F)ccc2Cl)c2ccccc2)ccc1[N+](=O)[O-] (stereo not shown)	5.04%
CC(C)c1cc(C(=O)OCC(=O)N2CCN(C(=O)c3ccco3)CC2)c(O)c(C(C)C)c1	7.26%
COC(=O)c1ccc(-c2ccc(F)cc2)nc1C	11.6%
CC(C)(C)N(Cc1ccccc1)C(=O)CCc1ccccc1	18.1%
CC(C)[C@H]1CC[C@@H](C)C(C(=O)c2ccccc2)C1=O (stereo partly shown)	6.36%

Compound	hERG current change (%, negative = inhibition) at 1uM
Nc1nnc(SC2CCCC2)s1	12.1%
COCCN(C(=O)COC(=O)C1=COCCO1)c1c(N)n(Cc2ccccc2)c(=O)[nH]c1=O	6.95%
O=S(=O)(NC1CCCCC1)OCC(Cl)(Cl)Cl	5.01%
Cc1ccc(S(=O)(=O)Nc2cc(=O)[nH]c(SCC(=O)Nc3ccccc3C(F)(F)F)n2)cc1	14.6%
O=C(CS(=O)(=O)c1ccccc1)Nc1nccs1	20.7%
Cn1c(=O)c2c(n(C)c1=O)=NC1(CCCCC1)ON=2	-1.09%
Cc1ccc(S(=O)(=O)NC2CCSC2=O)cc1C (stereo not shown)	8.47%
C=CCNC1=C(Cl)C(=O)N(c2ccccc2Cl)C1=O	0.989%
O=S1(=O)CC(O)C(Nc2ccc(Cl)cc2)C1 (stereo not shown)	9.4%
O=C(CSc1ncnc2c1nnn2Cc1ccccc1)NC1CCCC1	17.2%
Cc1ccc(-c2ccc(SCC(=O)NC3CCCC3)nn2)cc1	18.8%
CC(=O)N1N=C(c2ccc(C)cc2)OC1c1ccc(Br)cc1 (stereo not shown)	24%
O=C(CC(=O)Nc1ccc(Br)cc1)Nc1ccc(Br)cc1	11.8%
COc1ccc(C2Nc3ccccc3C(=O)N2Cc2ccccc2)cc1OC (stereo not shown)	16.2%
CCc1ccc(N2C(=O)C3C4CCC(C4=C(C)C)C3C2=O)cc1 (stereo not shown)	2.63%
CCOc1cccc2cc(C(=O)NCCC3=CCCCC3)c(=O)oc12	7.13%
CCOC(=O)C1CCCN(C(=O)c2ccc([N+](=O)[O-])cc2)C1 (stereo not shown)	-3.93%
COc1ccccc1NC(=O)CN1C(=O)CCS(=O)(=O)c2ccccc21	3.22%
COc1ccc(NC(=O)COc2ccc(C)cc2)c([N+](=O)[O-])c1	8.91%
CC(=O)c1ccc(S(=O)(=O)N2CCN(c3nc4c(C)c(C)ccc4cc3C#N)CC2)cc1	1.48%

Compound	hERG current change (%, negative = inhibition) at 1uM
COCCCNC(=O)CCCCCNS(=O)(=O)c1ccc(Br)cc1	-5.74%
COc1ccccc1-n1c(SCC(=O)Nc2cc(C)on2)nc2c(c1=O)SCC2	4.66%
CCOC(=O)Cc1csc(NC(=O)COc2ccc(N(C)S(=O)(=O)c3ccc(C)cc3)cc2)n1	-5.32%
CC(=O)N1CCCc2cc(S(=O)(=O)N(CC(C)C)CC(C)C)ccc21	-9.33%
O=C(O)c1cnc(-c2ccccc2)nc1Sc1ccccc1Cl	8.64%
Cc1ccc(-c2noc(-c3ccccc3C(=O)NCc3ccco3)n2)cc1	-0.593%
CCOc1ccc(C(C)NC(=O)c2ccc3c(c2)NC(=O)C(C)S3)cc1OCC (stereo not shown)	11.2%
CC(C)C(C(=O)NC(C)(C)C)N(CCN1CCOCC1)C(=O)CNS(=O)(=O)c1ccccc1 (stereo not shown)	1.36%
CCn1c(=O)n(CC)c2cc(N3CCCC3)c(NC(=O)c3ccccc3Br)cc21	10.3%
Cc1cc(C)cc(NC(=O)/C=C/c2ccc([N+](=O)[O-])s2)c1	9.55%
O=C(c1ccccc1F)N1CCN(c2ccccc2)CC1	3.59%
COc1ccccc1NS(=O)(=O)c1ccc(C(=O)N2CC(C)OC(C)C2)cc1 (stereo not shown)	15.6%
CCOC(=O)/C(C(N)=NCCCO)=C(/O)c1ccccc1	-0.697%
O=C(CCCO)c1ccc2c(c1)OCCO2	12.1%
O=C(N/N=C/c1ccco1)c1ccc2nc[nH]c2c1	16.7%
Cc1ccc(S(=O)(=O)N2CCC(C(=O)OC3CCOC3=O)CC2)cc1C (stereo not shown)	2.69%
Cc1ccc(-c2nc(CS(=O)CC(=O)NC(C)CCc3ccccc3)c(C)o2)cc1 (stereo not shown)	-9.57%
Cc1cccc(-n2nc3c(c2NC(=O)c2ccco2)CSC3)c1C	4.1%
